Results are given in words; binding and its absence hold for the method and conditions named. In cells and extracts the contact can be indirect. Some results given as binding are weak or reduced against the parent protein; the word gives no strength. For part of these data: Tags and fused reporters may be left off the sequences shown.

Sequences of proteins named here, by UniProt entry; tags and fusion partners are left off. A change or cut given only in a name is not applied to a line headed by its entry. Residues count along the entry.
UniProt Q16665: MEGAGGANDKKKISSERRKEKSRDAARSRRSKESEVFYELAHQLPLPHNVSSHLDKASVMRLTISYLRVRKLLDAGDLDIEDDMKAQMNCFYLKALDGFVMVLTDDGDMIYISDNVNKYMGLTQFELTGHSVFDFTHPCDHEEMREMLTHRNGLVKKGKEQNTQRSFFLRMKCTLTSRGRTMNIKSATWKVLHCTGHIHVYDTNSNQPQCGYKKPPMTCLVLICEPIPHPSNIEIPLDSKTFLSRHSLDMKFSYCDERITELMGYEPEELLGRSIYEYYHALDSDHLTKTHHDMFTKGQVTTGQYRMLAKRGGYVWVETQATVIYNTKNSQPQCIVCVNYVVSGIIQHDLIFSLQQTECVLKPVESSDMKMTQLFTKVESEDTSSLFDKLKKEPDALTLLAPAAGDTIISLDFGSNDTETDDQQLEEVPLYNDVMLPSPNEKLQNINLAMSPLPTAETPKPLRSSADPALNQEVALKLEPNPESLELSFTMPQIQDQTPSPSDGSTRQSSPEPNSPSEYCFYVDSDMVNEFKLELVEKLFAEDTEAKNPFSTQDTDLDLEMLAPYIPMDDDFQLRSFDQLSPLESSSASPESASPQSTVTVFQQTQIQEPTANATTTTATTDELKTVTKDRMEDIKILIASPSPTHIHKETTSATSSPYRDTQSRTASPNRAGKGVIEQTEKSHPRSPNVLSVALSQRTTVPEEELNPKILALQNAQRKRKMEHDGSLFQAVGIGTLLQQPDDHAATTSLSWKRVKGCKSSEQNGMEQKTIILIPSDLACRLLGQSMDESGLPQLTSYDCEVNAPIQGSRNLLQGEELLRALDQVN
GST-HIF-1α-N-terminal domain (1-401 residues): residues 1-401 of Q16665
HIF-1α-ODD (oxygen dependent degradation domain, 401-603 residues): residues 401-603 of Q16665
UniProt Q9GZT9: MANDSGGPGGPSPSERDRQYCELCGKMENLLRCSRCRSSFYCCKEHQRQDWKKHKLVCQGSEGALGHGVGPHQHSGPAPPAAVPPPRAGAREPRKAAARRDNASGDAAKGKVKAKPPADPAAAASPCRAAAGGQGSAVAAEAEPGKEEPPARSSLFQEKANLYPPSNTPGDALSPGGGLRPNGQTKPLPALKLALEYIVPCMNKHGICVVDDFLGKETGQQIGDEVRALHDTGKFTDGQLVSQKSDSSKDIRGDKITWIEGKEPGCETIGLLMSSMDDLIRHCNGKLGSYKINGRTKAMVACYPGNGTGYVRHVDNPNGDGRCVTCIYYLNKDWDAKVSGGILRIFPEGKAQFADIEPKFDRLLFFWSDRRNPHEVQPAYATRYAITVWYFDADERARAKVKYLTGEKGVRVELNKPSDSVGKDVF
UniProt P40337: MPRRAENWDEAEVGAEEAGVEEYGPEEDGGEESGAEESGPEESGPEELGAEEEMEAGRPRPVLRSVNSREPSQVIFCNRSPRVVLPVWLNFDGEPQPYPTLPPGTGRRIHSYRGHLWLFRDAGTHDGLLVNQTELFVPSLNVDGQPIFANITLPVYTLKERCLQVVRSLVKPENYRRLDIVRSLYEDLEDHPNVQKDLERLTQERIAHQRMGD

The values below come from publication PMC4323006.

Experiment [1] addresses HIF-1α (source not stated for the experiment) (UniProt Q16665). In words: co-IP; HEK293 lysates (passive-lysis buffer, gentle sonication), antibody with protein A sepharose beads, immunoblot; normoxia, many panels with MG132; some panels with co-expressed PLD1, PLD1-PH, PHD2 or VHL or with DFX; for PLD1-PH under normoxia and hypoxia. For orientation: A western blot detects proteins with antibodies after separation by electrophoresis.

For experiment [2], the target named is PHD2 (HIF prolyl hydroxylase 2), transfected (UniProt Q9GZT9). Described as above.
Experiment [3] addresses von Hippel-Lindau protein (HA-VHL), wild type (UniProt P40337). Described as above.
Experiment [4] concerns the target HIF-1α (source not stated for the experiment) (UniProt Q16665). In words: co-IP; HEK293 cells cultured under hypoxic conditions (1% O2) before immunoprecipitation.
Experiment [5] has as its target PHD2 (HIF prolyl hydroxylase 2), transfected (UniProt Q9GZT9). The experiment is described as above.
In experiment [6] the target is Endogenous HIF-1α (human (endogenous in HEK293)) (UniProt Q16665). In words: co-IP; HEK293 lysates (passive-lysis buffer, gentle sonication), antibody with protein A sepharose beads, immunoblot; normoxia, many panels with MG132; some panels with co-expressed PLD1, PLD1-PH, PHD2 or VHL or with DFX; for PLD1-PH under normoxia and hypoxia.
The target in experiment [7] is Exogenous HIF-1α (HA-HIF-1α, wild type) (UniProt Q16665). Described as above.
Experiment [8] concerns the target GST-HIF-1α-N-terminal domain (1-401 residues) (UniProt Q16665). Described as above.
Experiment [9] has as its target HA-HIF-1α-PPAA (P402A/P564A) (UniProt Q16665). The experiment is described as above.
Experiment [10] concerns the target HIF-1α-ODD (oxygen dependent degradation domain, 401-603 residues) (UniProt Q16665). The description is as above.
The target in experiment [11] is Endogenous PHD2 (human (endogenous in HEK293)) (UniProt Q9GZT9). The description is as above.
Experiment [12] has as its target In vitro-translated HA-PHD2 (UniProt Q9GZT9). Description: co-IP; in vitro binding assay: IP of in vitro-translated HA-PHD2 and in vitro-translated PLD1.

B1: GFP-PH domain of dynamin 1 (DNM1) (domain or fragment, UniProt Q05193 519-625)
chain: LVIRKGWLTINNIGIMKGGSKEYWFVLTAENLSWYKDDEEKEKKYMLSVDNLKLRDVEKGFMSSKHIFALFNTEQRNVYKDYRQLELACETQEEVDSWKASFLRAGV
Regarding B1, the binding entry in experiment [1] is reported as “no binding”.

B2: GFP-PH domain of phospholipase C-δ1 (PLCδ1) (domain or fragment, UniProt P51178 21-130)
chain: ALLKGSQLLKVKSSSWRRERFYKLQEDCKTIWQESRKVMRTPESQLFSIEDIQEVRMGHRTEGLEKFARDVPEDRCFSIVFKDQRNTLDLIAPSPADAQHWVLGLHKIIH
For the molecule B2, in experiment [1], the binding entry is recorded as “no binding”.

B3: GFP-PLD1-PH (domain or fragment, UniProt Q13393 219-328)
chain: PKGIEGMIMKRSGGHRIPGLNCCGQGRACYRWSKRWLIVKDSFLLYMKPDSGAIAFVLLVDKEFKIKVGKKETETKYGIRIDNLSRTLILKCNSYRHARWWGGAIEEFIQ
Turning to B3, the binding result in [1], in experiment [2] and in experiment [3] was “binds” each time.

B4: Phospholipase D1 (PLD1), wild type (enzyme, UniProt Q13393 1-1074)
chain: MSLKNEPRVNTSALQKIAADMSNIIENLDTRELHFEGEEVDYDVSPSDPKIQEVYIPFSAIYNTQGFKEPNIQTYLSGCPIKAQVLEVERFTSTTRVPSINLYTIELTHGEFKWQVKRKFKHFQEFHRELLKYKAFIRIPIPTRRHTFRRQNVREEPREMPSLPRSSENMIREEQFLGRRKQLEDYLTKILKMPMYRNYHATTEFLDISQLSFIHDLGPKGIEGMIMKRSGGHRIPGLNCCGQGRACYRWSKRWLIVKDSFLLYMKPDSGAIAFVLLVDKEFKIKVGKKETETKYGIRIDNLSRTLILKCNSYRHARWWGGAIEEFIQKHGTNFLKDHRFGSYAAIQENALAKWYVNAKGYFEDVANAMEEANEEIFITDWWLSPEIFLKRPVVEGNRWRLDCILKRKAQQGVRIFIMLYKEVELALGINSEYTKRTLMRLHPNIKVMRHPDHVSSTVYLWAHHEKLVIIDQSVAFVGGIDLAYGRWDDNEHRLTDVGSVKRVTSGPSLGSLPPAAMESMESLRLKDKNEPVQNLPIQKSIDDVDSKLKGIGKPRKFSKFSLYKQLHRHHLHDADSISSIDSTSSYFNHYRSHHNLIHGLKPHFKLFHPSSESEQGLTRPHADTGSIRSLQTGVGELHGETRFWHGKDYCNFVFKDWVQLDKPFADFIDRYSTPRMPWHDIASAVHGKAARDVARHFIQRWNFTKIMKSKYRSLSYPFLLPKSQTTAHELRYQVPGSVHANVQLLRSAADWSAGIKYHEESIHAAYVHVIENSRHYIYIENQFFISCADDKVVFNKIGDAIAQRILKAHRENQKYRVYVVIPLLPGFEGDISTGGGNALQAIMHFNYRTMCRGENSILGQLKAELGNQWINYISFCGLRTHAELEGNLVTELIYVHSKLLIADDNTVIIGSANINDRSMLGKRDSEMAVIVQDTETVPSVMDGKEYQAGRFARGLRLQCFRVVLGYLDDPSEDIQDPVSDKFFKEVWVSTAARNATIYDKVFRCLPNDEVHNLIQLRDFINKPVLAKEDPIRAEEELKKIRGFLVQFPFYFLSEESLLPSVGTKEAIVPMEVWT
Consider B4, for which the binding result in experiment [4] is listed as “no binding (condition: under hypoxia (1% O2))”; in [5] it was “no binding (condition: under hypoxia (1% O2))”; in [6], “binds”; in [7], “binds”; in experiment [8] it was “binds”; in experiment [9], “binds”. Moreover, the binding result in experiment [1] is on record as “binds”; in [10], “no binding”; in experiment [2], “binds”.

B5: Endogenous PLD1 (enzyme, UniProt Q13393 1-1074)
chain: MSLKNEPRVNTSALQKIAADMSNIIENLDTRELHFEGEEVDYDVSPSDPKIQEVYIPFSAIYNTQGFKEPNIQTYLSGCPIKAQVLEVERFTSTTRVPSINLYTIELTHGEFKWQVKRKFKHFQEFHRELLKYKAFIRIPIPTRRHTFRRQNVREEPREMPSLPRSSENMIREEQFLGRRKQLEDYLTKILKMPMYRNYHATTEFLDISQLSFIHDLGPKGIEGMIMKRSGGHRIPGLNCCGQGRACYRWSKRWLIVKDSFLLYMKPDSGAIAFVLLVDKEFKIKVGKKETETKYGIRIDNLSRTLILKCNSYRHARWWGGAIEEFIQKHGTNFLKDHRFGSYAAIQENALAKWYVNAKGYFEDVANAMEEANEEIFITDWWLSPEIFLKRPVVEGNRWRLDCILKRKAQQGVRIFIMLYKEVELALGINSEYTKRTLMRLHPNIKVMRHPDHVSSTVYLWAHHEKLVIIDQSVAFVGGIDLAYGRWDDNEHRLTDVGSVKRVTSGPSLGSLPPAAMESMESLRLKDKNEPVQNLPIQKSIDDVDSKLKGIGKPRKFSKFSLYKQLHRHHLHDADSISSIDSTSSYFNHYRSHHNLIHGLKPHFKLFHPSSESEQGLTRPHADTGSIRSLQTGVGELHGETRFWHGKDYCNFVFKDWVQLDKPFADFIDRYSTPRMPWHDIASAVHGKAARDVARHFIQRWNFTKIMKSKYRSLSYPFLLPKSQTTAHELRYQVPGSVHANVQLLRSAADWSAGIKYHEESIHAAYVHVIENSRHYIYIENQFFISCADDKVVFNKIGDAIAQRILKAHRENQKYRVYVVIPLLPGFEGDISTGGGNALQAIMHFNYRTMCRGENSILGQLKAELGNQWINYISFCGLRTHAELEGNLVTELIYVHSKLLIADDNTVIIGSANINDRSMLGKRDSEMAVIVQDTETVPSVMDGKEYQAGRFARGLRLQCFRVVLGYLDDPSEDIQDPVSDKFFKEVWVSTAARNATIYDKVFRCLPNDEVHNLIQLRDFINKPVLAKEDPIRAEEELKKIRGFLVQFPFYFLSEESLLPSVGTKEAIVPMEVWT
Consider B5, for which, in experiment [11], the binding result is reported as “binds”.

B6: In vitro-translated PLD1 (enzyme, UniProt Q13393 1-1074)
chain: MSLKNEPRVNTSALQKIAADMSNIIENLDTRELHFEGEEVDYDVSPSDPKIQEVYIPFSAIYNTQGFKEPNIQTYLSGCPIKAQVLEVERFTSTTRVPSINLYTIELTHGEFKWQVKRKFKHFQEFHRELLKYKAFIRIPIPTRRHTFRRQNVREEPREMPSLPRSSENMIREEQFLGRRKQLEDYLTKILKMPMYRNYHATTEFLDISQLSFIHDLGPKGIEGMIMKRSGGHRIPGLNCCGQGRACYRWSKRWLIVKDSFLLYMKPDSGAIAFVLLVDKEFKIKVGKKETETKYGIRIDNLSRTLILKCNSYRHARWWGGAIEEFIQKHGTNFLKDHRFGSYAAIQENALAKWYVNAKGYFEDVANAMEEANEEIFITDWWLSPEIFLKRPVVEGNRWRLDCILKRKAQQGVRIFIMLYKEVELALGINSEYTKRTLMRLHPNIKVMRHPDHVSSTVYLWAHHEKLVIIDQSVAFVGGIDLAYGRWDDNEHRLTDVGSVKRVTSGPSLGSLPPAAMESMESLRLKDKNEPVQNLPIQKSIDDVDSKLKGIGKPRKFSKFSLYKQLHRHHLHDADSISSIDSTSSYFNHYRSHHNLIHGLKPHFKLFHPSSESEQGLTRPHADTGSIRSLQTGVGELHGETRFWHGKDYCNFVFKDWVQLDKPFADFIDRYSTPRMPWHDIASAVHGKAARDVARHFIQRWNFTKIMKSKYRSLSYPFLLPKSQTTAHELRYQVPGSVHANVQLLRSAADWSAGIKYHEESIHAAYVHVIENSRHYIYIENQFFISCADDKVVFNKIGDAIAQRILKAHRENQKYRVYVVIPLLPGFEGDISTGGGNALQAIMHFNYRTMCRGENSILGQLKAELGNQWINYISFCGLRTHAELEGNLVTELIYVHSKLLIADDNTVIIGSANINDRSMLGKRDSEMAVIVQDTETVPSVMDGKEYQAGRFARGLRLQCFRVVLGYLDDPSEDIQDPVSDKFFKEVWVSTAARNATIYDKVFRCLPNDEVHNLIQLRDFINKPVLAKEDPIRAEEELKKIRGFLVQFPFYFLSEESLLPSVGTKEAIVPMEVWT
As for B6, the binding result in [12] is on record as “binds”.

B7: GFP-PH domain of phospholipase C-δ4 (PLCδ4) (domain or fragment, UniProt Q9BRC7 16-124)
chain: LLMQEGMPMRKVRSKSWKKLRYFRLQNDGMTVWHARQARGSAKPSFSISDVETIRNGHDSELLRSLAEELPLEQGFTIVFHGRRSNLDLMANSVEEAQIWMRGLQLLVD
With B7, the binding entry in experiment [1] is “no binding”.

B8: GFP-PH domain of dynamin 2 (DNM2) (domain or fragment, UniProt P50570 519-625)
chain: LVIRRGWLTINNISLMKGGSKEYWFVLTAESLSWYKDEEEKEKKYMLPLDNLKIRDVEKGFMSNKHVFAIFNTEQRNVYKDLRQIELACDSQEDVDSWKASFLRAGV
Take B8: the binding entry in experiment [1] is “no binding”.
